In PubChem BioAssay AID2546 (National Center for Advancing Translational Sciences (NCATS), 2010):
The campaign covered roughly 310,000 compounds. About 11,000 (3.5%) were called active. This list was built around the results that the source calls inconclusive (neither active nor inactive); the mix of calls is not that of the screen. Calls come from the whole dose curve; as a rule, active = well fitted inhibition curve with a large enough effect; inconclusive = small, poorly fitted or top-dose-only effect, or effect the other way; inactive = flat fitted curve, though single readings scatter. Potencies of inconclusive entries are left out as doubtful fits.

experiment: VP16 counterscreen qHTS for inhibitors of ROR gamma transcriptional activity; conditions: Drosophila S2 Gal4-VP16 UAS-luciferase, luminescence, 20 h; series mostly up to 53.6 µM;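 note: Gal4-VP16 expression switched on by copper sulfate through the metallothionein promoter; nearly all actives have a fitted effect of over 50% in size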
Potency is the fitted concentration of half-maximal effect; tags give direction and shape of the fitted curve.

SMILES	Potency
Cc1cc[n+](CC(=O)c2ccc3c(c2)OCCO3)cc1	inactive
O=C(/C=C\c1ccco1)Nc1cc([N+](=O)[O-])ccc1F	inactive
COc1ccccc1CNC(=O)CCCNC(=O)Cn1cnc2sc(C)c(C)c2c1=O	inactive
COc1ccc(C2c3c(ncn(CCCN4CCOCC4)c3=N)Oc3ccc4ccccc4c32)cc1OC (configuration not stated)	inactive
CCc1nc(NCc2cccnc2)c2oc3ccccc3c2n1	inactive
O=c1c(Cl)c(N2CCN(S(=O)(=O)c3ccc(F)cc3)CC2)cnn1-c1cccc(Cl)c1	inactive
CC(=O)OC1COC(OC2C(O)C(C)OC(OC3C(OC4CCC5(C)C(CCC6(C)C5CC=C5C7CC(C)(C)CCC7(C(=O)O)CCC56C)C4(C)CO)OCC(O)C3O)C2O)C(O)C1OC(C)=O (configuration not stated)	inconclusive [inhibitor, single point]
CCN(c1cccc(C)c1)S(=O)(=O)c1cnc[nH]1	inactive
COc1ccc2nc(NC(=O)c3cccs3)sc2c1	inconclusive [inhibitor, partial curve, poor fit]
O=c1c2cc(Cl)ccc2[nH]c(=S)n1Cc1ccco1	active: 5.62 µM
O=C(Nc1ccc2nc3n(c(=O)c2c1)CCCCC3)c1c(F)ccc([N+](=O)[O-])c1F	active: 7.94 µM
CCOc1ccc2nc(C)cc(Nc3cccc([N+](=O)[O-])c3)c2c1	inconclusive [inhibitor, single point]
Cc1ccc(CNCC(O)(c2ccc(F)cc2)c2ccc(F)cc2)cc1	inconclusive [inhibitor, single point]
COc1ccc(C(=O)CC(=O)C(=O)Nc2cc([N+](=O)[O-])ccc2OC)cc1	inconclusive [inhibitor, single point]
O=C(C(=O)N1CCCc2ccccc21)N1CCCc2ccccc21	inactive
O=C(Cn1nnc(-c2cc(C(F)(F)F)cc(C(F)(F)F)c2)n1)NNC(=S)Nc1ccc(Cl)cc1	inconclusive [inhibitor, partial curve]
Cc1noc(C)c1-c1ccc2ncnc(NCc3ccccc3C(F)(F)F)c2c1	inactive
O=C(/C=C/c1ccc(Cl)cc1)NC(=S)Nc1ccc(NC(=O)c2ccco2)cc1	active: 7.08 µM
S=c1[nH]nc(COc2ccccc2)n1Cc1ccccc1	active: 6.31 µM
Cc1ccc(NS(=O)(=O)c2cccc(C(=O)NCC(c3cccs3)N(C)C)c2)cc1 (configuration not stated)	inactive
Cc1nn(-c2ccccc2)c(Cl)c1/C=N/Nc1nc2ccccc2n1C	active: 3.55 µM
COc1cccc(C(=O)Nc2ccc3ccccc3c2)c1	inconclusive [inhibitor, single point]
